Laboratory results published in publication PMC4336329 (PLoS ONE, 2015).
About 14,000 (4.5%) of roughly 310,000 compounds showed an effect of 50% or more. Effects have a minus sign here. This is one part of the list.

Target: human ether-à-go-go-related gene (hERG) potassium channel (human, UniProt Q12809)
Assay: primary screen, population patch clamp on CHO cells stably expressing hERG
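Further: peak tail current of the secondary pulse compared with the same well before compound.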

Chain of human ether-à-go-go-related gene (hERG) potassium channel (Q12809 whole entry, looked up): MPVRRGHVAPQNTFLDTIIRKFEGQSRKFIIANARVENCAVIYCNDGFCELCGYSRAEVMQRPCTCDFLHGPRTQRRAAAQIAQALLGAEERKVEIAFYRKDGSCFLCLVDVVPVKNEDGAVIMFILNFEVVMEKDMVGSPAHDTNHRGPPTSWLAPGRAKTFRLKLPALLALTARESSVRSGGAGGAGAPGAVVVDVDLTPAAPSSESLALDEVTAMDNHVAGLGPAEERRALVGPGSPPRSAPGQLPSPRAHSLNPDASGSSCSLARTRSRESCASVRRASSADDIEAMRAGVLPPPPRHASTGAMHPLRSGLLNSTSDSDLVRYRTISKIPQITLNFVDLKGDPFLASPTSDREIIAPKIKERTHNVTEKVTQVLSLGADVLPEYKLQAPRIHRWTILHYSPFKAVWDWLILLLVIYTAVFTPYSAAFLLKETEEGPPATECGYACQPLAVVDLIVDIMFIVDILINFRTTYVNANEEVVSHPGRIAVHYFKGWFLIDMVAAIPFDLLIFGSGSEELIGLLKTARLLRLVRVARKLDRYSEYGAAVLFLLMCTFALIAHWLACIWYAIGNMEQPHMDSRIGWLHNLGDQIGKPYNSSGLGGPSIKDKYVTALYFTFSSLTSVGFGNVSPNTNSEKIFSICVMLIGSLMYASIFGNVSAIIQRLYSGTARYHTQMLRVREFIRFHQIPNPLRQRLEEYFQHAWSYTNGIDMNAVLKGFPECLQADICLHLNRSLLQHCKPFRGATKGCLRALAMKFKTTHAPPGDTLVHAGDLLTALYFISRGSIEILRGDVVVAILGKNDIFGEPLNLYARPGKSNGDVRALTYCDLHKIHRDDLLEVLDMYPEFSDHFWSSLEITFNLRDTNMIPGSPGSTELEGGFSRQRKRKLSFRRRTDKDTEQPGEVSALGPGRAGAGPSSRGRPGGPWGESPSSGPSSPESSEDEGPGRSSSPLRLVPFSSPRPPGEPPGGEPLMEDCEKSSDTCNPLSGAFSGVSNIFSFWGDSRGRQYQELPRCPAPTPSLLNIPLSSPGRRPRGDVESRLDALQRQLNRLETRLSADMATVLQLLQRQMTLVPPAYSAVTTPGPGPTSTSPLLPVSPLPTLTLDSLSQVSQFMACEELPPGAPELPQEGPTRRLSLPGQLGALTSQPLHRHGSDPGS

Compound | hERG current change (%, negative = inhibition) at 10uM [%]
Cc1oc(S(=O)(=O)N2CCCC2)cc1C(=O)Nc1ccc(F)cc1 | -15.8
Cc1nc2cc(Cl)ccc2n1-c1ccccc1 | -16.3
CCCc1nnc(SCC(=O)Nc2ccc(Cl)cc2Cl)o1 | -5
COCCNC(=O)CCN1N=C(c2ccccc2)CCC1=O | 15
CCN(CC)CCn1c2ccccc2c2cnc(N)c(C#N)c21 | -60.5
COC(=O)Cn1ncc2c3ccccc3n(Cc3ccccc3)c2c1=O | -0.623
Cc1ccc(S(=O)(=O)[N-]c2nc3ccccc3nc2-[n+]2cc(C)cc(C)c2)cc1 | 0.96
CC(C)NC(=O)CN1CCN(Cc2nc(C(c3ccccc3)c3ccccc3)no2)CC1 | -23.6
CC(=O)N1CCC(=NNc2nc3ccccc3[nH]2)CC1.O=C(O)C(=O)O | 24.4
Cc1cccc(N(C(=O)CNC(=O)c2ccco2)C(C(=O)NCC2CCCO2)c2ccccc2)c1 (centres unmarked) | 9.57
O=c1[nH]c(CSc2ccccn2)nc2c1oc1ccccc12 | 23
O=C(COc1ccc2ccc(=O)oc2c1)NCCCn1ccnc1 | 0.322
CCOC(=O)C1=C(CS(=O)(=O)c2ccccc2)NC(=O)NC1c1cccc(OC)c1 (centres unmarked) | 8.83
O=C(Cn1ccsc1=NC(=O)C(F)(F)F)c1ccccc1 | -17.6
CCN(CC(=O)Nc1c(F)cccc1F)C(=O)c1ccc(Cl)c(S(=O)(=O)N2CCCCC2)c1 | 8.17
CCCCn1c(N)c(N(CCC(C)C)C(=O)COC(=O)c2cccnc2OCC)c(=O)[nH]c1=O | -1.62
Cc1oc2c(CN3CCOCC3)c(O)ccc2c(=O)c1-c1ccccc1 | 18.2
Cc1ccc(S(=O)(=O)N/N=C/c2ccc(O)cc2O)cc1[N+](=O)[O-] | -1.82
C=CCn1c(SCC(=O)NCC2CCCO2)nc2scc(-c3ccc(OC)cc3)c2c1=O (centres unmarked) | -14.9

Compound | hERG current change (%, negative = inhibition) at 10uM [%]
CCOC(=O)[C@H]1NN=C(C(=O)OC)[C@@H]1c1ccccc1 | -1.08
COc1cccc(CNC(=O)Cc2ccc(-n3c(=O)[nH]c4ccccc4c3=O)cc2)c1 | 10.1
O=c1[nH]c2ccccc2s1 | 11.4
CN(C)CCCN(C(=O)COc1ccccc1)c1nc2c(Cl)cccc2s1.Cl | -66.9
Cc1cccc(N(C)S(=O)(=O)c2nnc(NC(=O)c3ccco3)s2)c1 | -0.361
O=C(Nc1nncs1)c1cccnc1Cl | 17.7
O=c1cc(O)c(-c2ccc(Cl)cc2)c(Cl)[nH]1 | -0.739
CCc1nnc(NC(=O)CSc2nnc(-c3ccc(S(=O)(=O)N(CC)CC)cc3)n2CC)s1 | 6.02
CC(C)c1ccc(SCc2noc(C(=O)NCC3CCCO3)c2C(=O)O)cc1 (centres unmarked) | 4.92
O=C(Nc1ccc(F)cc1)c1c(Cl)nc2ccccn12 | -34.9
CCOc1ccc2oc(C(=O)O)c(C)c2c1 | 4.62
CC(=O)Nc1ccc(CN2CCCC(C(=O)c3ccc(C(F)(F)F)cc3)C2)cc1 (centres unmarked) | -77.3
COc1ccc(NC(=O)Cc2nnc(SCC(=O)NC3CCCCC3)n2C)cc1 | 9.92
COc1ccc(OCC(=O)Nc2ccc3c(c2)nc2n3CCSC2)cc1 | -3.43
CCCc1cc(=O)oc2cc(OCC(=O)NC(Cc3c[nH]c4ccc(O)cc34)C(=O)O)c(Cl)cc12 (centres unmarked) | 13
COCc1cc(C)nc(SCC[N+](C)(C)CC(=O)c2ccccc2)c1C#N.[Br-] | 34
FC(F)(F)c1nc2ccccc2n2c(-c3c(Cl)cccc3Cl)nnc12 | -7.37
c1ccc(-n2nnnc2CN2CCOCC2)cc1 | 14.8
COc1ccccc1NS(=O)(=O)c1ccc(C)c(C(=O)N2CCCC2)c1 | 2.31

Compound | hERG current change (%, negative = inhibition) at 10uM [%]
CS(=O)(=O)c1ccc2nc(NC(=O)CN3C(=O)NC4(CCCC4)C3=O)sc2c1 | -4.88
CCc1noc(C)c1C(=O)Nc1nc(-c2ccc(F)cc2)c(C)s1 | 7.05
CC(=O)c1ccccc1NC(=O)C1C2CCC(O2)C1C(=O)O (centres unmarked) | 8.81
CCC(C(=O)NC1CCCC1)N(Cc1ccco1)C(=O)Cn1nnc(-c2ccc(C)cc2)n1 (centres unmarked) | -9.13
COc1cc(NC(=O)c2ccco2)c(OC)cc1NC(=O)CCC(=O)Nc1cc(C)cc(C)c1 | -9.18
O=C(CSc1n[nH]c(=O)n1C1CC1)NCc1ccccc1Cl | 21
Cn1cnnc1SC(C(=O)Nc1ccc(F)cc1)c1ccccc1 (centres unmarked) | -24.8
Cc1ccc(CN2C(=O)CSC2c2ccccc2F)cc1 (centres unmarked) | 3.9
Cc1ccc(N(CC(=O)NC(C)(C)C)C(=O)CCC(=O)Nc2nccs2)cc1C | -1.07
O=[N+]([O-])c1cc(C(F)(F)F)ccc1SCC(O)CO (centres unmarked) | 9.6
Nc1cccc2nc3ccccc3cc12 | -24.7
Cc1cc(C(=O)Nc2ccccc2C(=O)N2CCCCC2)ccc1[N+](=O)[O-] | -11.9
COc1cc(/C=N\NC(=O)c2ccc(-c3ccccc3)cc2)cc(OC)c1O | -3.44
COc1ccc(/C=N/NC(=O)c2ccc(CSc3nc(C)cc(C)n3)cc2)c(OC)c1OC | -7.96
O=C(COC(=O)CNC(=O)c1ccccc1)Nc1ccc(S(=O)(=O)N2CCOCC2)cc1 | 11.8
Cc1cc(C)n2nc(CC(=O)NC3CCCC(C)C3C)nc2n1 (centres unmarked) | 1.78
CSc1ccc(/C=N/n2c(C)cc(C)cc2=O)cc1 | -2.09
O=C(CN1C(=O)NC2(CCc3ccccc3C2)C1=O)Nc1ccc(F)cc1 (centres unmarked) | -5.75
